# Measurements from PMC4336329 (PLoS ONE, 2015).
# In all, about 310,000 compounds went through this assay and about 14,000 (4.5%) showed an effect of 50% or more. Effects have a minus sign here. The list shows a part of the results.
# Biological target: human ether-à-go-go-related gene (hERG) potassium channel (human, UniProt Q12809)
# Test: primary screen, population patch clamp on CHO cells stably expressing hERG
# 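Note: peak tail current of the secondary pulse compared with the same well before compound.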
# Sequence of human ether-à-go-go-related gene (hERG) potassium channel (Q12809 whole entry, looked up): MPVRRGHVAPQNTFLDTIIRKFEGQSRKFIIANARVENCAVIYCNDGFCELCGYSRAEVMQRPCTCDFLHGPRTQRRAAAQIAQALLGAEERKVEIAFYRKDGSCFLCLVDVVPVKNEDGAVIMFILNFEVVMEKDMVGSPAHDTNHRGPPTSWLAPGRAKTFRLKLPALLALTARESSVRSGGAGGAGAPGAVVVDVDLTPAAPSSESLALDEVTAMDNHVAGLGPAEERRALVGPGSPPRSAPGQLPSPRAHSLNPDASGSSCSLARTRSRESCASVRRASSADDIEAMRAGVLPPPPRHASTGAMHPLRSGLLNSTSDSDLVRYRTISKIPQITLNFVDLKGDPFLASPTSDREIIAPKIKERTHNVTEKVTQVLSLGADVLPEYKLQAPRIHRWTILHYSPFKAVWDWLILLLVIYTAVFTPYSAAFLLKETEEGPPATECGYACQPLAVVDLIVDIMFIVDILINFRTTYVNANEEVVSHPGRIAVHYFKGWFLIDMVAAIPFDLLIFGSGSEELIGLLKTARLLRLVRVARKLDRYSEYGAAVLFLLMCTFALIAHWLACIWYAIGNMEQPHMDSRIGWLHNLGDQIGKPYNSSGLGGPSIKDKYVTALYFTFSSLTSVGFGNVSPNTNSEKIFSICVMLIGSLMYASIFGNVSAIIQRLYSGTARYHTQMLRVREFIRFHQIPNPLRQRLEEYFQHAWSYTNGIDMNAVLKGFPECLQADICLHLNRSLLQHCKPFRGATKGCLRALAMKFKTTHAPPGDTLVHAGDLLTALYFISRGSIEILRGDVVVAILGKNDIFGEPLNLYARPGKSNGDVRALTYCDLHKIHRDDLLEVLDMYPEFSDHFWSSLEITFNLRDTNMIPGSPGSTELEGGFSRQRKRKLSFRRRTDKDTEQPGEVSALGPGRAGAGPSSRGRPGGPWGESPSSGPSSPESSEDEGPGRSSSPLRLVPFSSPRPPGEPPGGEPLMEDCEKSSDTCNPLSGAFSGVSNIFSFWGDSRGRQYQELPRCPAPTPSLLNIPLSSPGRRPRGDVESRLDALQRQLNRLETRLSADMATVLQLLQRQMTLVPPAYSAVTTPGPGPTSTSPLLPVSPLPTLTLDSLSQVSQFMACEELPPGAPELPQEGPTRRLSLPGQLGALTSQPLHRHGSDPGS
row,Compound,"hERG current change (%, negative = inhibition) at 10uM [%]"
1,O=C(c1ccccc1)c1cc2cc(Cl)ccc2[nH]1,15.1
2,CSc1nc(C)cc(Oc2ccc(=O)[nH]n2)n1,4.47
3,CN(C)C(=O)c1ccccc1Sc1cc(Cl)ccc1Cl,-14.5
4,O=C(NCCSc1c(-c2ccccc2)[nH]c2ccccc12)c1cc2ccccc2oc1=O,-9.48
5,COc1ccc(/C=N/NC(=S)Nc2ccccc2[N+](=O)[O-])cc1O,11.5
6,Cc1cc(C(=O)COC(=O)c2ccccc2O)c(C)n1Cc1cccs1,-5.84
7,Cc1cccc(Nc2c3c(nc4ccccc24)CCC3)c1.Cl,-71.5
8,O=C(Cn1nnc(-c2ccccc2)n1)NC(=O)NC1CCCC1,9.53
9,CCOc1ccc2nc(Cl)c(/C=C/C(=O)c3ccco3)cc2c1,14
10,Cc1cccc(C)c1NC(=O)CN(C)C(=O)C1CCCCC1,-7.37
11,Cc1ccc(O)c(NC(=O)c2cccc(NC(=O)c3ccco3)c2)c1,-46.5
12,Nc1nc(SCC(=O)NCCCN2CCOCC2)nc2sc3c(c12)CCC3,-9.2
13,COc1ccc(C)cc1NC(=O)CN1C(=O)CSc2ccc(S(=O)(=O)N3CCCC3)cc21,18.9
14,O=S(=O)(c1cc(Cl)c(Cl)cc1Cl)N1CCN2CCCC2C1 (stereo not drawn),2.05
15,C=CCn1cc(C(=O)NCc2ccco2)c(=O)c2cc(S(=O)(=O)N3CCCCCC3)ccc21,-36.4
16,CN(CCO)c1c2c(nc3cc(-c4cccc(F)c4)nn13)CCCC2,-40.2
17,O=C(NC1CCCC1)c1c[nH]c2ccc(F)cc2c1=O,13.2
18,CC(C)(C)c1cc(C(F)(F)F)c(C#N)c(=O)[nH]1,25
19,Cc1ccc(-n2cccc2/C=C2\C(=N)N3N=C(C(C)C)SC3=NC2=O)cc1,11.4
20,Cc1c(Cl)cccc1NC(=O)CSc1nnc(CCNC(=O)OC(C)(C)C)o1,-28.4
21,Cc1ccc(C(=O)COC(=O)c2ccc3c(c2)C(=O)N(c2cccc4ncccc24)C3=O)cc1C,6.91
22,Cc1cc(C)n(-c2nc(NC(C)C)nc(NC(C)C)n2)n1,-16.5

row,Compound,"hERG current change (%, negative = inhibition) at 10uM [%]"
1,Cc1ccc(C2C3=C(CC(C)(C)CC3=O)NC3=C2C(=O)c2ccccc23)cc1 (stereo not drawn),-2.02
2,CC(C)(C)NC(=O)C(c1ccco1)N(C(=O)c1csnn1)c1ccccc1 (stereo not drawn),-4.55
3,C[C@@H]1C(=O)O[C@H]2[C@H]1CC[C@@]1(C)C(=O)C=C[C@@](C)(O)[C@H]21,15.6
4,Cc1cc(C)nc(/N=C(\N)Nc2ccc(S(=O)(=O)Nc3nccc(C)n3)cc2)n1,19.8
5,N#CC1=C2N=C(N)c3ccccc3N2C2=C(C(=O)CCC2)C1c1ccc(F)cc1 (stereo not drawn),-19.5
6,CC(CNC(=O)CCS(=O)(=O)c1ccc2c(c1)oc(=O)n2C)c1ccccc1 (stereo not drawn),8.49
7,CCOC(=O)c1cnc2sccn2c1=O,12.1
8,COc1ccccc1CN1CCCC(CN(CCN(C)C)C(=O)c2ccc(C)cc2)C1 (stereo not drawn),-12.9
9,Cc1ccc(NC(=O)CSc2nnc(-c3cccs3)o2)cc1S(=O)(=O)N(C)C,-5.04
10,CCOc1cc(C(=O)Nc2ccc(S(=O)(=O)NC3=NCCCCC3)cc2)cc(OCC)c1OCC,23.6
11,Cc1ccc(C)c(-n2c(CNC(=O)c3ccco3)nnc2SCC(=O)N2CCc3ccccc32)c1,2.31
12,O=C(c1c[nH]c(C(=O)C(Cl)(Cl)Cl)c1)c1ccccc1Cl,17.5
13,COc1cccc(NC(=O)CSc2ncnc3c2oc2ccccc23)c1,4.57
14,Cc1oc2c(O)c(O)ccc2c(=O)c1-c1ccccc1,4.11
15,CC1(C)CC2CC(C)(CN2C(=O)COC(=O)CNC(=O)c2ccc(Cl)c(Cl)c2)C1 (stereo not drawn),-20.9
16,Cc1nc(SCC(=O)Nc2ccccn2)n[nH]1,20.7
17,O=C(NNc1nc(-c2ccccc2)c2cc(Br)ccc2n1)c1ccc(S(=O)(=O)N2CCCCC2)cc1,8.26
18,O=C(O)c1ccc(N2C(=O)c3[nH]nc(-c4ccccc4)c3C2c2ccccc2)cc1 (stereo not drawn),22.3
19,C=CCn1cccc(C(=O)Nc2ccc(OC)c(OC)c2)c1=O,21
20,CN1CCN(c2nc3nonc3nc2N2CCN(C)CC2)CC1,0.911
21,CC(C)(C)NC(=O)NCCc1ccccc1,11
22,Cc1nnc(SCc2cccs2)[nH]c1=O,-8.43

row,Compound,"hERG current change (%, negative = inhibition) at 10uM [%]"
1,CCOC(=O)CNC(=O)CSc1ncnc2c1cnn2-c1ccc(C)cc1,2.15
2,O=C(/C=C/c1ccc2c(c1)OCO2)c1cccnc1,-27.8
3,CCOC(=O)Cc1cc(C)[nH]c1C(=O)OCC,-5.81
4,CCOC(=O)c1ccc(CNC(=O)Cn2nnc(-c3cccc(C)c3)n2)o1,-10.9
5,O=C(CN1CCC(C(O)(c2ccccc2)c2ccccc2)CC1)Nc1ccccc1,-42.1
6,Cc1cccc(-c2cc3nc(C)cc(NCCCn4ccnc4)n3n2)c1,-59.3
7,O=C(CN(Cc1ccco1)C(=O)CNS(=O)(=O)c1ccccc1)NCc1ccccc1,-20.4
8,COc1ccc(NC(=O)CS(=O)CC(=O)N2CCN(C3CCCC3)CC2)cc1 (stereo not drawn),27.2
9,CCc1ccccc1NC(=S)N(CCOC)C(C)c1ccco1 (stereo not drawn),-25.1
10,CC(=O)OC1(c2ccccc2)CC(C(C)(C)C)CN(C(C)(C)C)C1.Cl (stereo not drawn),6.9
11,CC(=O)Nc1c(O)c2ccccc2[nH]c1=O,4.92
12,CCOc1ccc(-n2nc(C(=O)N3CCN(CC)CC3)c3ccccc3c2=O)cc1,-14.5
13,CC(C)n1c(=O)n(CC(=O)NCC2CCCO2)c(=O)c2c3c(sc21)COC(C)(C)C3 (stereo not drawn),4.21
14,CCOC(=O)C1CCCN(C(=O)CCc2nnc(-c3ccc(C(C)=O)s3)o2)C1 (stereo not drawn),13
15,COCCNC(=S)N/N=C(\C)c1ccc(OC(F)F)cc1,-4.58
16,Cc1ccc(NC(=O)Cn2cnc3cc([N+](=O)[O-])ccc3c2=O)cc1,0.77
17,COc1ccc(OCC(=O)NNC(=O)C2CCN(c3ncnc4sc(C)c(C)c34)CC2)cc1,-52.5
18,CON(c1nc(N(C)C)nc(N(C)C)n1)S(=O)(=O)c1ccccc1Cl,-8.85
19,CCOC(=O)C1CCN(C(=O)CNS(=O)(=O)c2cccs2)CC1,-0.439
20,CC1CCCCC1NC(=O)C1CCCN1S(=O)(=O)c1cccc2nsnc12 (stereo not drawn),2.7
21,COc1cc(OC)c(NC(=O)/C=C/C(=O)O)cc1Cl,17.3
22,COc1ccc(NC(=O)CN(c2ccc(OC)c(Cl)c2)S(=O)(=O)c2ccccc2)c(OC)c1,8.77

row,Compound,"hERG current change (%, negative = inhibition) at 10uM [%]"
1,[N-]=C=C1C(=O)NC(=O)C([n+]2ccc(-c3ccncc3)cc2)C1c1ccccc1C(F)(F)F (stereo not drawn),0.282
2,COc1ccc(OC)c(CNC(=O)C2CCC(=O)N(CCCN3CCCC3=O)C2)c1 (stereo not drawn),-4.22
3,O=C(N/N=C/c1coc2ccc(Cl)cc2c1=O)c1cc(O)cc(O)c1,-3.69
4,C=CCSc1nnc(-c2nnc(SCC=C)n2CC)n1CC,0.323
5,CCCCNC(=O)c1ccc2c(c1)N(CC)C(=O)CS2,-2.74
6,COc1ccc(/C=N/NC(=O)CCN2CCCCC2c2cccnc2)cc1Cn1cc([N+](=O)[O-])cn1 (stereo not drawn),-30.7
7,COc1ccc(C(=O)NC(=S)N2CCCc3ccccc32)cc1OC,-14.9
8,Brc1cnc2ccccc2c1N1CCCCC1,9.82
9,Cc1cc(C)nc(N2CCCC(C(=O)NC(C)CCc3ccco3)C2)n1 (stereo not drawn),-4.14
10,CCOc1ccccc1NC(=O)CSc1nnc(-c2cnccn2)n1CC,-44.2
11,CCN1C(=O)[C@H]2[C@@H](c3ccc(C)cc3)N3C(=O)N(c4cccc(F)c4)C(=O)[C@@]3(Cc3ccc(Cl)cc3)[C@H]2C1=O,6.42
12,OCC1(CCOc2ccccc2)CCN(CC2=Cc3cc(Cl)ccc3OC2)CC1,-21.9
13,Cc1cc(C)n(-c2cc(N3CCN(C(=O)c4ccccc4C)CC3)ccc2[N+](=O)[O-])n1,-52.7
14,O=C(NCC1CCCO1)C(C(=O)c1ccc(F)cc1)n1ccccc1=O (stereo not drawn),16.3
15,CN(C)c1cccc(C(=O)N/N=C/c2ccsc2)c1,2.64
16,Cc1cc(=O)oc2c3c(cc(OCC(=O)NC(C)C)c12)OC(C)(C)CC3,-2.62
17,O=C(NCc1ccc(Cl)cc1Cl)Nc1ccccc1,2.75
18,Cc1cnn(C(=S)NCCc2ccccc2)c1,-2.59
19,C/C(=N\NC(=O)COc1ccccc1F)c1cc2ccccc2o1,3.99
20,Cc1csc2nc(CSc3ccc(Cl)cc3)cn12,-27.3
21,COc1ccc(C(=O)N/N=C/C(C)c2ccccc2)cc1OC (stereo not drawn),-5.03
